According to patent US20200079850A1 (SUTRO BIOPHARMA, published 2020):
Like-named read-outs stand apart in the source and are kept apart here.

Key:
[1] = molecular target: T1, human PD-1 expressed on the surface of CHO cells (human, UniProt Q15116 25-288); test: flow cytometry, CHO-PD1 cells
T1 construct: I took it as human PD-1; also called CHO-PD1
Procedure: (§1) CHO-k cells stably expressing PD-1 or LAG3 (human or cynomolgus) on the cell surface were used to assess binding affinity of anti-PD-1/LAG3 bispecific antibody constructs. Cells were seeded at 100,000 cells/well in 100 μL of FACS buffer (1×PBS, 0.5% BSA, 0.1% sodium azide) in 96-well polypropylene plates. The cells were centrifuged at 1.5K rpm and resuspended with test antibodies diluted in FACS buffer and incubated on ice for 1 hour. The cells were washed twice with FACS buffer and incubated on ice for 30 mins with R-Phycoerythrin-AffiniPure F(ab′)2 Fragment Goat Anti-Human IgG (H+L) secondary detection antibody (1:200 dilution, Jackson ImmunoResearch Laboratories, West Grove, Pa.). The cells were washed twice with FACS buffer, fixed in 4% paraformaldehyde in PBS (Santa Cruz Biotechnology; Dallas, Tex.) for 20 mins on ice in the dark, washed twice with FACS buffer, and analyzed using the BD LSR II Flow Cytometer (BD Biosciences; San Jose, Calif.). Data were analyzed using FlowJo (FlowJo, LLC; Ashland, Oreg.) to determine mean fluorescence intensities. Binding constants were calculated using the statistical software, GraphPad Prism (GraphPad Software; La Jolla, Calif.) using the nonlinear regression equation, one site—specific binding with Hill slope. The secondary antibody by itself was used as a control.

[2] = molecular target: T1, human PD-1 expressed on the surface of …; test: flow cytometry, CHO-PD1 cells; remark: listed apart in the source
Procedure: as §1

[3] = molecular target: PD1 (ELISA antigen of Table 25); test: PD1 ELISA
[4] = molecular target: T2, LAG3 (ELISA antigen of Table 25) (Homo sapiens (Human), UniProt P18627 23-450); test: LAG3 ELISA
T2 sequence: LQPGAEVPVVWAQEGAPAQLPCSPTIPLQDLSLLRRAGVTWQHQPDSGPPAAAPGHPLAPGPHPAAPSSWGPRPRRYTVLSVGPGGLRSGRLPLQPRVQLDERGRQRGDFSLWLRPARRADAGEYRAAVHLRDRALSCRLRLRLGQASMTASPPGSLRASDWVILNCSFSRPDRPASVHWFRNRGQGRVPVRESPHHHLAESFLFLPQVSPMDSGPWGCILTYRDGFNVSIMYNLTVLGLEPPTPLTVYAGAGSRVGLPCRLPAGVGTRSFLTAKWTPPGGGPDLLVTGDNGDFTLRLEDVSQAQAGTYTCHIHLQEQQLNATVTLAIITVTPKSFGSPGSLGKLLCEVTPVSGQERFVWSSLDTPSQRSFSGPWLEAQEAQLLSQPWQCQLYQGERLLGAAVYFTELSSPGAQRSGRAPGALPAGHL

[5] = molecular target: T3, human LAG3 expressed on the cell surface (CHO-LAG3, 293T-LAG3 cells) (human, UniProt P18627 23-525); test: flow cytometry, 293T-LAG3 cells
T3 construct: Stably transfected CHO or HEK293T cells; also called Human LAG3 (CHO); Human LAG3 (293T)
T3 sequence: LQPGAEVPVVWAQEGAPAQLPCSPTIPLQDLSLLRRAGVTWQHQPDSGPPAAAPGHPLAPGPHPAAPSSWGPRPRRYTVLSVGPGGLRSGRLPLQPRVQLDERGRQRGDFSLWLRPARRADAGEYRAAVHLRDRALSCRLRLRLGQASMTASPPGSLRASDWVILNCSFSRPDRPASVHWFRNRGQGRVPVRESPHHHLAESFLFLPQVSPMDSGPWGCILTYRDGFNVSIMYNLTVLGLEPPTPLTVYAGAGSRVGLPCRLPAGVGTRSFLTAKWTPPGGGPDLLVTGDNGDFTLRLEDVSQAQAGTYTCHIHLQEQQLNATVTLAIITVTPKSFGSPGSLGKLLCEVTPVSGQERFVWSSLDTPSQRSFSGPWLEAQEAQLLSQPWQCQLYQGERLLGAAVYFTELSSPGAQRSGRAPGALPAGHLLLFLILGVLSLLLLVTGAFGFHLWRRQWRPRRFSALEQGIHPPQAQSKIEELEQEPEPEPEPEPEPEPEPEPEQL

Chain of PD1 (ELISA antigen of Table 25) (Q15116 25-170): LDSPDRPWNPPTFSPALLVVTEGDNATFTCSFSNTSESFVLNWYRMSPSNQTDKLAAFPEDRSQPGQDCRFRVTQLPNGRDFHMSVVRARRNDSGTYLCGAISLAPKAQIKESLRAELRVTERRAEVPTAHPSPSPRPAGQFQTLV

B1: Construct F: aLAG3 1449-G09.2_H x aPD1 1353-G10_K (two-chain scFvFc, knob-in-hole) (bispecific antibody)
scFv 1: MQVQLVESGGGVVQPGRSLRLSCAASGFTFSSYGMHWVRQAPGKGLEWVAVIWYDGSYKYYADSVKGRFTISRDNSKNTLYLQMNSLRAEDTAVYYCAREEAPENWDYALDVWGQGTTVTVSSAPGPSAPSHRSLPSRAFG[no letters for about 100 residues]SFGPGTKVDIKAAGSDQ[no letters for human IgG1 Fc with C220S P230S P238S T366S L368A Y407V (EU numbers)]
scFv 2: MEVQLVQSGAEVKKPGASVKVSCKASGYRFPHYGISWVRQAPGQGLEWMGWISAYNGNTNYAQKLQGRVTMTTDTSTNTAYMELRSLRSDDTAVYYCARDVDYGTGSGYWGQGTLVTVSSGGGGSGGGGSGGGGSSYELTQPPSVSVSPGQTARITCSGDALPKQYAYWYQQKPGQAPVMVIYKDTERPSGIPERFSGSSSGTKVTLTISGVQAEDEADYYCQSADNSITYRVFGGGTKVTVLAAGSDQ[no letters for human IgG1 Fc with changes]
Bmax [1]: 7200 | Kd [1]: 1.1 nM | Kd [2]: 6 nM | EC50 [3]: 1.2 nM | EC50 [4]: 0.44 nM | Kd [5]: 15 nM
